Source: PMC4336329 (PLoS ONE, 2015)
Among all 310,000 compounds or so, about 2,200 (0.71%) showed an effect of 50% or more. Effects have a minus sign here. The list shows a part of the results.

Biological target: human ether-à-go-go-related gene (hERG) potassium channel (human, UniProt Q12809)
Assay: primary screen, population patch clamp on CHO cells stably expressing hERG

Sequence of human ether-à-go-go-related gene (hERG) potassium channel (Q12809 whole entry, looked up): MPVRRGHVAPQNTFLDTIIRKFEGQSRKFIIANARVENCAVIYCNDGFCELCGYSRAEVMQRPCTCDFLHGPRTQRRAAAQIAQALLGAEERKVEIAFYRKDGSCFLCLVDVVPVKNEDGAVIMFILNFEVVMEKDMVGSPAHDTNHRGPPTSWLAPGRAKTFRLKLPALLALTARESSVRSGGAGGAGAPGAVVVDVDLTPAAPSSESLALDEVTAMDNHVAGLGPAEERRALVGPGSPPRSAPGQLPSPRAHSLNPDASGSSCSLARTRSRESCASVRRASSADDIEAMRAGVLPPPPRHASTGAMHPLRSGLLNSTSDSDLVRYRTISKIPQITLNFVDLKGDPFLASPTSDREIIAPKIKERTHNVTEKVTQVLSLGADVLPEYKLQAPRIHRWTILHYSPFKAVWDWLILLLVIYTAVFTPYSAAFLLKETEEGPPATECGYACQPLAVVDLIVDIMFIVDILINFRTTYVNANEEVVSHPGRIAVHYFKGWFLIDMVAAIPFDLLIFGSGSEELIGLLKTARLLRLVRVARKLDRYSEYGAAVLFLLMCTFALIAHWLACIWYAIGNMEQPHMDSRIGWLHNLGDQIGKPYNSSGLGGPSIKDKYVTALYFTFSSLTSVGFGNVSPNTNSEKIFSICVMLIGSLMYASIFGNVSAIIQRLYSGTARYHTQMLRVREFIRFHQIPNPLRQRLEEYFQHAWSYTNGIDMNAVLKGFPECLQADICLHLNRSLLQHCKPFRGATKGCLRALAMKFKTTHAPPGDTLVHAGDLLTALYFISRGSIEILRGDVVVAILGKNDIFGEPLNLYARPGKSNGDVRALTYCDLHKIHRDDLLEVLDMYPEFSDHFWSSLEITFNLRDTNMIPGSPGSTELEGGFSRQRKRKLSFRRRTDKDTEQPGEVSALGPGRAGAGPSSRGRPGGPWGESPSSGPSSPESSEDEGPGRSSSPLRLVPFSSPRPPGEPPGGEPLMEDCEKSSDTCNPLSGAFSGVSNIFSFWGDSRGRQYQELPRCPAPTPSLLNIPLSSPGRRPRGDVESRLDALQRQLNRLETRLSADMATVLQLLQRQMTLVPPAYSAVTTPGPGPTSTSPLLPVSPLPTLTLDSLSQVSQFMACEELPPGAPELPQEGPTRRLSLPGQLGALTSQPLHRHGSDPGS

| Compound | hERG current change (%, negative = inhibition) at 1uM |
| --- | --- |
| CN(Cc1ccc(C(F)(F)F)cc1)C(=O)C1CCC(=O)N(C2CC2)C1 (stereo not drawn) | -21% |
| O=C(CCSc1ccccc1)NCCSCc1ccccc1 | 9.36% |
| C=CCN(C(=O)CCC(=O)Nc1cc(C)on1)C(C(=O)NC(C)(C)CC)c1cccc(OC)c1OC (stereo not drawn) | 12.2% |
| COc1cccc(C(=O)/C=C2\NCCc3cc(OC)c(OC)cc32)c1 | 7.07% |
| CCc1nnc(SCC(=O)N2CCCc3ccccc32)nc1CC | 5.51% |
| CCOC(=O)NC(Cc1c[nH]c2ccccc12)C(=O)NCCc1ccc(S(N)(=O)=O)cc1 (stereo not drawn) | 17.7% |
| CC(NC(=O)COC(=O)c1ccc([N+](=O)[O-])s1)c1ccccc1 (stereo not drawn) | 0.147% |
| COCCn1c(C)cc(C(=O)COC(=O)c2ccc[nH]c2=O)c1C | 19.1% |
| O=C(c1cc([N+](=O)[O-])ccc1Cl)N1CCN(c2ccc(F)cc2)CC1 | 0.85% |
| CC1CN(C(=O)c2ccc(COc3ccccc3Cl)o2)CC(C)O1 (stereo not drawn) | 26% |
| COc1ccc(N2CCCn3c2nc2c3c(=O)n(Cc3ccccc3F)c(=O)n2C)c(OC)c1 | 7.09% |
| CCN(CC)S(=O)(=O)c1ccc2[nH]c(=O)cc(C(=O)Nc3cccc(C(C)=O)c3)c2c1 | 11.5% |
| O=C(CN1C2CCCC1CC(NC(=O)C1CCCCC1)C2)Nc1ccccc1 (stereo not drawn) | 3.32% |
| COc1ccc2oc(C(=O)N3CCN(C/C=C/c4ccccc4)CC3)c(C)c2c1 | 2.51% |
| COC(=O)/C=C\C(=O)Nc1cccc([N+](=O)[O-])c1 | 8.24% |
| COc1ccccc1CN(C)CC(=O)Nc1ccc(Cl)cc1C(F)(F)F.O=C(O)C(=O)O | 4.83% |
| COc1ccc(NC(=O)c2ccc(CNc3c(NC4CCCCC4)c(=O)c3=O)cc2)c(OC)c1 | 7.68% |
| FC(F)(F)c1ccccc1NC(=S)N1CCN(c2ccccn2)CC1 | 5.11% |
| Cl.O=C(NCCc1ccccn1)c1cc(-c2ccc(Cl)c(Cl)c2Cl)nc2ccccc12 | 11.1% |
| N#CSc1ccc2oc(C3=NCCN3)cc2c1 | 10.7% |
| Cc1ccc(-c2nnc(SCC(=O)NNC(=O)COc3ccccc3C)n2C)cc1 | 7.06% |
| NC(=O)c1c(NC(=O)c2cccnc2Cl)sc2c1CCCC2 | 6.66% |
| O=C(Cn1c(=O)n(Cc2ccc(F)cc2)c(=O)c2ccccc21)NCC1CCCO1 (stereo not drawn) | 10.1% |

| Compound | hERG current change (%, negative = inhibition) at 1uM |
| --- | --- |
| O=C(COC(=O)c1ccccc1SCC(=O)N1CCCC1)NCc1ccccc1 | 10.7% |
| CCn1c(CCNC(=O)c2ccc(Cl)cc2Cl)n[nH]c1=S | 1.65% |
| COc1ccc(OCC(=O)N/N=C\c2ccco2)cc1 | 16.3% |
| O=[N+]([O-])c1ccc(CN2CCN(c3ccccc3Cl)CC2)o1 | 15.1% |
| O=C(CCC(=O)c1ccccc1)Nc1ccccc1 | 6.96% |
| CCOC(=O)C1CCCN(CCC(=O)Nc2ccc(C)cc2)C1.Cl (stereo not drawn) | -2.07% |
| O=C(COC(=O)c1n[nH]c2ccccc12)NCc1ccccc1 | 1.09% |
| Cc1cc(C(=O)NCCC2=CCCCC2)ccc1[N+](=O)[O-] | 5.97% |
| COc1ccccc1CC(=O)Nc1ccc([N+](=O)[O-])cc1OC | 8.75% |
| Cc1cc(Cl)ccc1OCC(=O)OCC(=O)Nc1ccc(F)c([N+](=O)[O-])c1 | 6.56% |
| O=C(Cc1coc2ccc3ccccc3c12)NCc1ccccc1 | -2.89% |
| CCNC(=S)N/N=C(\C)c1ccc2ccccc2c1 | 8.73% |
| COc1ccc(NC(=O)CSCC(=O)Nc2ccc(C)c(S(=O)(=O)N3CCCCCC3)c2)cc1 | -0.337% |
| COc1ccc(C(=O)Nc2ccccc2C(=O)NCCN2CCOCC2)cc1 | 2.89% |
| O=C(Nc1ccc2c(c1)CN(Cc1ccc(CO)o1)CC2)c1ccc(C(F)(F)F)cc1 | 11.2% |
| Oc1ccc(Br)cc1/C=N/N1CCN(Cc2ccccc2)CC1 | 8.32% |
| O=C(CCC(NC(=O)OCc1ccccc1)C(=O)OCC(=O)N1CCCCC1)OCC(=O)N1CCCCC1 (stereo not drawn) | 3.2% |
| COc1ccc(C(=O)CN(CCC(=O)O)S(=O)(=O)c2ccc([N+](=O)[O-])cc2)cc1 | 3.35% |
| Cc1csc(=O)n1CC(=O)OCc1cccc2ccccc12 | 6.77% |
| O=C(/C=C/c1cccc([N+](=O)[O-])c1)NC1CC2CCC1C2 (stereo not drawn) | -2.96% |
| CCOC(=O)c1c(NC(=O)c2c(C)noc2C)sc2c1CCCCC2 | 13% |
| COc1cc(NS(=O)(=O)c2ccc(N/C=C(\C#N)c3nc4cc(Cl)ccc4o3)cc2)nc(OC)n1 | -7.19% |
